Source: PubChem BioAssay (Tox21)
This list was built around the results that the source calls inconclusive (neither active nor inactive); the mix of calls is not that of the screen. For some assays here: Where the call is inconclusive, the potency comes from a doubtful curve fit. The source made the active and inactive calls. Unless noted, the call rests on the fitted dose curve; in most records, active means well fitted curve in the direction sought with a large enough effect in the repeat runs; inconclusive means weak or mixed curves; inactive means no such curve, though single readings can be large; an effect the other way counts as inactive or inconclusive.

Columns and labels:
[1] = qHTS assay for identifying genotoxic compounds that show differential cytotoxicity against isogenic chicken DT40 cell lines with known DNA damage response pathways - Rad54/Ku70 mutant cell line (AID 743015); settings: DT40 Rad54/Ku70 mutant viability, CellTiter-Glo, 40 h; activity change, negative = cytotoxicity: at 66.8 µM (top of the series); further: nearly all actives have a fitted effect of over 60% in size; further: potency means the concentration at half of the fitted maximal effect; on activity change, negative = cytotoxicity: on the % scale 0 is the no-effect control and ±100 the full control effect
[2] = A CellTox Green Cytotoxicity Assay to monitor cytotoxicity in HEK293 cells - 40 hour (AID 1224871); settings: CellTox Green fluorescence; series mostly up to 76.8 µM; further: nearly all actives have a fitted effect of over 45% in size; further: potency means the concentration at half of the fitted maximal effect
Summary of the method: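 HEK293 cells premixed with CellTox Green dye were seeded at 600 cells/well and left 5 h at 37 C/5% CO2 before pin transfer of 23 nL compound in DMSO. Fluorescence from dye bound to dead-cell DNA was read during 40 h treatment.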

[3] = qHTS assay to identify small molecule agonists of the sonic hedgehog signaling (Shh) pathway - cell viability counter screen (AID 1259366); settings: NIH/3T3 Gli1-Luc viability, CellTiter-Fluor, 24 h; series mostly up to 92.4 µM; further: potency means the concentration at half of the fitted maximal effect; nearly all actives have a fitted effect of over 50% in size
Summary of the method: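 Viability measured fluorometrically (CellTiter-Fluor, 1hr, 37C) in 3T3 Gli1-Luc reporter cells after 23hr compound exposure within a 24hr incubation at 37C/5% CO2.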

[4] = qHTS assay to identify small molecule antagonists of the peroxisome proliferator-activated receptor gamma (PPARg) signaling pathway - cell viability counter screen (AID 743194); settings: PPARg-bla HEK293H viability, CellTiter-Glo luminescence, 17 h; Potency: co-treated with 50 nM rosiglitazone unless noted; activity change, negative = cytotoxicity: at 62.6 µM (top of the series), co-treated with 50 nM rosiglitazone unless noted; further: on the % scale 0 is the no-effect control and ±100 the full control effect; nearly all actives have a fitted effect of over 55% in size
Summary of the method: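 PPARg-UAS-bla HEK293H cells were plated, rested 5 h at 37 C, then treated with compounds plus rosiglitazone (50 nM final) for 17 h at 37 C; viability was then read by CellTiter-Glo luminescence after 30 min at room temperature.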

[5] = biological target: Thyrotropin receptor (Homo sapiens) (UniProt P16473); assay: qHTS assay to identify small molecule antagonists of the thyroid stimulating hormone receptor (TSHR) signaling pathway (AID 1259385; calls by dose curve; further: nearly all actives have a fitted effect of over 20% in size; further: potency means the concentration at half of the fitted maximal effect; on activity change, negative = inhibition: on the % scale 0 is the no-effect control and ±100 the full control effect); settings: TSHR-HEK293 cAMP HTRF, TSH-stimulated antagonist mode; activity change, negative = inhibition: at 92.4 µM (top of the series)
Chain of UniProt P16473 (P16473 whole entry, looked up): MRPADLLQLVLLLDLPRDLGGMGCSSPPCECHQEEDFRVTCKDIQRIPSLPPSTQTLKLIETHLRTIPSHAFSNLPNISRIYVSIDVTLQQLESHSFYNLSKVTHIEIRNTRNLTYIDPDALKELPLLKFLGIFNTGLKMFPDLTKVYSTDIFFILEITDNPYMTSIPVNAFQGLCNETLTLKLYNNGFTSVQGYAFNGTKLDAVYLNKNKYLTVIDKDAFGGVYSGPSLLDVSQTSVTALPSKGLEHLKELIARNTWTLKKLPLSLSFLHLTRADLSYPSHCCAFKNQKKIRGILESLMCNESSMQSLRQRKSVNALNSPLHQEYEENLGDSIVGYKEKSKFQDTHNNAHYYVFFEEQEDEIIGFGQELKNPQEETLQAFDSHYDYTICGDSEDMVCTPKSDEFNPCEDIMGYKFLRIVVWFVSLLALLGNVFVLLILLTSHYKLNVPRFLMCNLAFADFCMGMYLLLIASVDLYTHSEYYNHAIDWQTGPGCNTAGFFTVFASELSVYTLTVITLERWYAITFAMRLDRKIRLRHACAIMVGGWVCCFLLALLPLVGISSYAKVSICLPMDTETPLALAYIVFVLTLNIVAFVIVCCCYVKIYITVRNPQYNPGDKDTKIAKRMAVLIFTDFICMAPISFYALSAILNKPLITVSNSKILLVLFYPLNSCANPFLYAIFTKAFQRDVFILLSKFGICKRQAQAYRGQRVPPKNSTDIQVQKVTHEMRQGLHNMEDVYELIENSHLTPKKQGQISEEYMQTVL
Summary of the method: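 TSHR-HEK293 cells were plated and held 18 h at 37C/5% CO2, then given compound plus Ro20-1724 and stimulated with TSH at 1.5 ng/mL final. After 30 min at room temperature, cAMP was detected with cAMP-d2/anti-cAMP-cryptate (1 h) by fluorescence.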

[6] = biological target: Luciferin 4-monooxygenase (Photinus pyralis) (UniProt P08659); assay: qHTS assay to identify small molecule inhibitors of firefly luciferase (AID 1224835); further: nearly all actives have a fitted effect of over 25% in size; further: potency means the concentration at half of the fitted maximal effect; on activity change, negative = inhibition: on the % scale 0 is the no-effect control and ±100 the full control effect; settings: purified P. pyralis luciferase, luminescence inhibition; series mostly up to 115 µM
Chain of UniProt P08659 (P08659 whole entry, looked up): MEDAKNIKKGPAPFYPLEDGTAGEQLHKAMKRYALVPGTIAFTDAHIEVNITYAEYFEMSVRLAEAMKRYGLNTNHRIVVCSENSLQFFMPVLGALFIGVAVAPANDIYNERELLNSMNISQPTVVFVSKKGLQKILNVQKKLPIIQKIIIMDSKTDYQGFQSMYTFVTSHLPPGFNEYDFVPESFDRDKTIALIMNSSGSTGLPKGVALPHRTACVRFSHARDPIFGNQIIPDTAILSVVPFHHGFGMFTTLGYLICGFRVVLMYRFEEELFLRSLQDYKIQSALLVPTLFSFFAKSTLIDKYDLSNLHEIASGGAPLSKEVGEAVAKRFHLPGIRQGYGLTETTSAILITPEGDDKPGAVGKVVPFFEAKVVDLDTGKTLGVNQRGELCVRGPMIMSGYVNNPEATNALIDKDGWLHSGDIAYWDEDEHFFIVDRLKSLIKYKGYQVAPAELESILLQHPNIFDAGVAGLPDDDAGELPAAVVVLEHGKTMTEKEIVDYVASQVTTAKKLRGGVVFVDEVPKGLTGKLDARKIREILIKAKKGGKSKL
Summary of the method: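 Quantitative HTS format; KM concentrations of both substrates. Purified P. pyralis FLuc activity quantified from luminescence images.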

[7] = qHTS assay to identify small molecule antagonists of the sonic hedgehog signaling (Shh) pathway - cell viability counter screen (AID 1259367); settings: NIH/3T3 Gli1-Luc viability, CellTiter-Fluor, 24 h; series mostly up to 92.4 µM; further: nearly all actives have a fitted effect of over 55% in size; further: potency means the concentration at half of the fitted maximal effect
Summary of the method: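 After a 4 hr settling period, 3T3 Gli1-Luc cells were treated with DMSO-dissolved chemicals and conditioned medium, kept 24 hr at 37C in 5% CO2, and assayed for viability by CellTiter-Fluor fluorescence following 1 hr reagent incubation.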

[8] = qHTS assay to identify small molecule antagonists of the estrogen receptor beta (ER-beta) signaling pathway - cell viability counter screen (AID 1259382); settings: ER-beta-UAS-bla HEK293T viability, CellTiter-Glo luminescence, 16 h; series mostly up to 92.4 µM; further: potency means the concentration at half of the fitted maximal effect; nearly all actives have a fitted effect of over 55% in size
Summary of the method: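 ER-beta-UAS-bla HEK293T cells (2,000/well, 2% charcoal-stripped FBS) were pre-incubated 6 hr at 37C, then given compound plus 1nM final 17-beta-estradiol for 16 hr. Viability was read in the same wells by CellTiter-Glo luminescence after 30 min at room temperature.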

[9] = Caspase-3/7 induction in HepG2 cells by small molecules, qHTS cell viability counter screen (AID 1346981); settings: CellTiter-Fluor fluorescence, 17 h; series mostly up to 92.4 µM; further: potency means the concentration at half of the fitted maximal effect; nearly all actives have a fitted effect of over 30% in size
Summary of the method: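 Wild-type HepG2 cells (2,000/well) were allowed to settle for 5 hr at 37 C, 5% CO2, then dosed with compounds in DMSO by pin transfer. After 16 hr at 37 C, CellTiter-Fluor was added and fluorescence read 1 hr later.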

[10] = biological target: Nuclear receptor subfamily 1 group I member 3 (Homo sapiens) (UniProt Q14994); assay: qHTS assay to identify small molecule agonists of the constitutive androstane receptor (CAR) signaling pathway (AID 1224839); settings: HepG2 hCAR CYP2B6-luciferase, agonist mode, 24 h; series mostly up to 92.4 µM; further: potency means the concentration at half of the fitted maximal effect; nearly all actives have a fitted effect of over 15% in size
Chain of UniProt Q14994 (Q14994 whole entry, looked up): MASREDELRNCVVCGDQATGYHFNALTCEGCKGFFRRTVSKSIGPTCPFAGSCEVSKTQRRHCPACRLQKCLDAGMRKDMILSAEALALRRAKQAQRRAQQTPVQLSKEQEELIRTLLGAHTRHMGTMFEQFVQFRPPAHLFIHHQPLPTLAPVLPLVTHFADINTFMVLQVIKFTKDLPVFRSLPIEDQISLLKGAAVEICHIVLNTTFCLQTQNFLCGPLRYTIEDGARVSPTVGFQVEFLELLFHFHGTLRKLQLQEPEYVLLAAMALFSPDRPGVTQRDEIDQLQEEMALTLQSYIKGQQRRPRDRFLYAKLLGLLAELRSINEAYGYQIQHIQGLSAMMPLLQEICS
Summary of the method: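 A 15-concentration quantitative screen uses HepG2 cells co-transfected stably with human CAR and CYP2B6-2.2kb reporter. Treatment lasts 24 h with 0.75 uM PK11195 final present; ONE-Glo luminescence is the signal.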

[11] = Human pregnane X receptor (PXR) small molecule agonists, qHTS cell viability counter screen (AID 1346977); settings: PXR-Luc HepG2 viability, CellTiter-Fluor, 24 h; series mostly up to 92.4 µM; further: nearly all actives have a fitted effect of over 50% in size; further: potency means the concentration at half of the fitted maximal effect
Summary of the method: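 Measures live-cell protease fluorescence (CellTiter-Fluor) in PXR-Luc HepG2 cells treated 24hr with compounds at 37C. Cells had 5hr to attach before pin transfer of DMSO solutions.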

[12] = qHTS assay to identify small molecule agonists of the peroxisome proliferator-activated receptor delta (PPARd) signaling pathway - cell viability counter screen (AID 743211); settings: PPARd-bla HEK293H viability, CellTiter-Glo luminescence, 17 h; activity change, negative = cytotoxicity: at 62.6 µM (top of the series); further: nearly all actives have a fitted effect of over 55% in size; further: potency means the concentration at half of the fitted maximal effect
Summary of the method: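 Viability of GeneBLAzer PPARd UAS-bla HEK293H cells was assessed after 17 h compound incubation at 37C, using CellTiter-Glo reagent added after the reporter read and luminescence recorded 30 min later.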

[13] = qHTS RealTime-Glo MT Cell Viability Assay in HEK293 cells - 8 hour (AID 1224887); settings: RealTime-Glo luminescence; series mostly up to 76.8 µM; further: nearly all actives have a fitted effect of over 50% in size; further: potency means the concentration at half of the fitted maximal effect
Summary of the method: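 HEK293 cells mixed with RealTime-Glo reagents (NanoLuc plus cell-permeant prosubstrate) at 600 cells/well, preincubated 5 h at 37 C/5% CO2, then given 23 nL compound in DMSO. Nonlytic luminescence from viable cells was read at 0, 8, 16, 24, 32 and 40 h.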

[14] = qHTS assay to identify small molecule antagonists of the estrogen receptor alpha (ER-alpha) signaling pathway using the BG1 cell line (AID 743080; calls by dose curve;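 further: BG1 cells stimulated with 17beta-estradiol alongside compound; on the % scale 0 is the no-effect control and ±100 the full control effect; nearly all actives have a fitted effect of over 25% in size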); settings: BG1Luc4E2 ERE-luciferase antagonist mode, luminescence; activity change, negative = inhibition: at 70.3 µM (top of the series) unless noted
Summary of the method: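 BG1-Luc-4E2 cells (endogenous full-length ER-alpha, stable 4×ERE-luciferase) were starved 5 days in phenol-red-free medium with 10% charcoal-stripped FBS, plated 24 h, then given compound plus 17beta-estradiol for 21.5 h at 37 C; ONE-Glo luminescence read after 30 min.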

[15] = qHTS assay to identify aromatase inhibitors - cell viability counter screen (AID 743084); settings: MCF-7 aro ERE viability, CellTiter-Fluor, 24 h; activity change, negative = cytotoxicity: at 70.3 µM (top of the series)
[16] = biological target: Peroxisome proliferator-activated receptor gamma (Homo sapiens) (UniProt P37231); assay: qHTS assay to identify small molecule agonists of the peroxisome proliferator-activated receptor gamma (PPARg) signaling pathway (AID 743094; active means well fitted activation curve with a large enough effect in the signal ratio in the repeat runs, not every such curve was filed as active; inconclusive means weak or mixed curves, or effect the other way; inactive means no such curve, though single readings can be large or run the other way; the % refers to the signal ratio; further: on the % scale 0 is the no-effect control and ±100 the full control effect); settings: HEK293H PPARg-UAS-bla, beta-lactamase FRET ratio, 17 h
Chain of UniProt P37231 (P37231 whole entry, looked up): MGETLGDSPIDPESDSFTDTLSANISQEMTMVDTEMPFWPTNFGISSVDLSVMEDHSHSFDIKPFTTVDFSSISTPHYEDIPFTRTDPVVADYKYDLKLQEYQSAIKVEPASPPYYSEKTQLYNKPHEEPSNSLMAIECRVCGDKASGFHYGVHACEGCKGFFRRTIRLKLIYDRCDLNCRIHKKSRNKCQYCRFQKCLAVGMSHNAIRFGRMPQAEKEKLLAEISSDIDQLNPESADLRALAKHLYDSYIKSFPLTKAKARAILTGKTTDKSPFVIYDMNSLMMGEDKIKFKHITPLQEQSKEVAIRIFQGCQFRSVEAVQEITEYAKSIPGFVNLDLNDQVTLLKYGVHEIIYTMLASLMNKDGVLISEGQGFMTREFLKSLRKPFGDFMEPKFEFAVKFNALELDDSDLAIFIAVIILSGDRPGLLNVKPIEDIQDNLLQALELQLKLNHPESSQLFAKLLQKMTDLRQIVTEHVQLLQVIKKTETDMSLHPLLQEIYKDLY
Summary of the method: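 GeneBLAzer PPARg UAS-bla HEK293H cells carrying a stably integrated beta-lactamase reporter were pre-incubated 5 h at 37C, then exposed to compounds in DMSO for 17 h at 37C; LiveBLAzer B/G FRET substrate was added for 1 h at room temperature and fluorescence read.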

[17] = qHTS assay to identify small molecule antagonists of the estrogen related receptor signaling pathway with the pleiotropic PPARgamma coactivator (PGC) from Tox21 10K library (AID 1224841; call rule not given here; further: potency means the concentration at half of the fitted maximal effect; actives are mostly falling curves and most rising ones were filed inactive; nearly all actives have a fitted effect of over 50% in size); settings: PGC/ERR reporter cell line, ONE-Glo luciferase, 18 h; series mostly up to 92.4 µM
Summary of the method: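 PGC/ERR reporter cells were seeded at 2,000 cells/well and held 6 hours at 37 C/5% CO2 before pin-tool addition of compounds in DMSO. After 18 hours at 37 C, One-Glo was added and luminescence read after 30 minutes at room temperature.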

[18] = A CellTox Green Cytotoxicity Assay to monitor cytotoxicity in HepG2 cells - 40 hour (AID 1224879); settings: CellTox Green fluorescence; series mostly up to 76.8 µM; further: potency means the concentration at half of the fitted maximal effect; nearly all actives have a fitted effect of over 40% in size
Summary of the method: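 HepG2 cells were seeded together with the CellTox Green dye at 600 cells/well, left 5 h at 37 C/5% CO2, then given compounds in DMSO. Fluorescence from dye bound to dead-cell DNA was read repeatedly over 40 h of treatment at 37 C.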
Tags describe the fitted curve by direction and shape.

Structure (SMILES): CCNS(=O)(=O)C(F)(F)C(F)(F)C(F)(F)C(F)(F)C(F)(F)C(F)(F)C(F)(F)C(F)(F)F
- Potency [1]: inconclusive: 65.7 µM [cytotoxic, single point]
- Potency [2]: inactive
- Potency [3]: inconclusive: 65.7 µM [cytotoxic, single point]

Structure (SMILES): C[N+](C)(C)CC1CO1 (stereo unspecified)
- activity change, negative = cytotoxicity [1]: inconclusive: -103%
- Potency [4]: inactive
- Potency [5]: inactive

Structure (SMILES): CC(C)(c1ccc(O)c(-c2ccccc2)c1)c1ccc(O)c(-c2ccccc2)c1
- Potency [6]: inactive
- Potency [2]: inconclusive: 54.9 µM [activator, single point]
- Potency [7]: inconclusive: 68.6 µM [cytotoxic, single point]
- Potency [8]: active: 27.3 µM
- Potency [9]: active: 61.1 µM

Structure (SMILES): Nc1ccc([N+](=O)[O-])cc1Cl
- Potency [6]: inconclusive: 89.4 µM [inhibitor, partial curve, poor fit]
- Potency [10]: inconclusive: 61.1 µM [activator, partial curve, poor fit]
- Potency [11]: inconclusive: 54.5 µM [cytotoxic]
- Potency [9]: inconclusive: 61.1 µM [cytotoxic, partial curve]

Structure (SMILES): Clc1cc(Cl)c(-c2cc(Cl)c(Cl)cc2Cl)cc1Cl
- Potency [12]: inconclusive: 20.6 µM [cytotoxic, partial curve, poor fit]
- Potency [10]: inconclusive: 25.7 µM [activator]
- Potency [7]: inactive
- Potency [5]: inconclusive: 28.9 µM [falling, single point]

Structure (SMILES): C#CCOC(=O)/C=C(C)/C=C/CC(C)CCCC(C)C (stereo unspecified)
- Potency [1]: inconclusive: 77 µM [cytotoxic, single point]
- Potency [13]: inactive
- Potency [8]: inconclusive: 77 µM [rising, partial curve, poor fit]

Structure (SMILES): CC1CCCCC1NC(=O)Nc1ccccc1 (stereo unspecified)
- Potency [1]: inconclusive: 68.6 µM [cytotoxic, single point]
- activity change, negative = inhibition [14]: inconclusive: 13.5%
- Potency [13]: inconclusive: 38.9 µM [cytotoxic, partial curve, poor fit]

Structure (SMILES): COc1cc(CC(C)N)c(OC)cc1Br (stereo unspecified)
- Potency [1]: inconclusive: 33.5 µM [cytotoxic, partial curve, poor fit]
- Potency [15]: inconclusive: 79.5 µM [cytotoxic, partial curve, poor fit]
- activation ([16]; activation: at 57 µM (top of the series) unless noted): inconclusive: -14.1%
- activation ([16]; at 78.9 µM (top of the series)): inactive: -1.71%
- Potency [12]: inconclusive: 15.9 µM [cytotoxic, single point]
- Potency [17]: inconclusive: 31.7 µM [falling, full curve]
- Potency [18]: inconclusive: 63.7 µM [activator, single point]
- Potency [8]: inconclusive: 39.9 µM [cytotoxic, partial curve, poor fit]
- Potency [11]: inconclusive: 35.5 µM [cytotoxic, partial curve]

Structure (SMILES): CCNc1nc(NC(C)C(C)C)nc(SC)n1 (stereo unspecified)
- Potency [14]: inactive
- Potency [12]: inactive
- Potency [6]: inactive
- Potency [10]: active: 48.6 µM
- Potency [13]: inactive

Structure (SMILES): CC(C=O)Cc1ccc2c(c1)OCO2 (stereo unspecified)
- Potency [15]: inconclusive: 7.7 µM [rising, partial curve, poor fit]
- Potency [11]: inactive
